# Data from paper PMC10739154, “Reinvestigation of Disulfide-bonded Oligomeric Forms of the Unfolded Protein Response Transducer ATF6” (Cell Structure and Function, 2019).
# Where a chain is given by its changes, count along the chain named. Names may count otherwise. These are yes or no findings as the source states them, for the method shown. For some of these results: Binding seen in cells or lysates may run through a third protein. Some entries that bind do so weakly or less than the wild type.
# B1: EGFP-ATF6α(WT) (natural protein, human, UniProt P18850 1-670, looked up)
# chain: MGEPAGVAGTMESPFSPGLFHRLDEDWDSALFAELGYFTDTDELQLEAANETYENNFDNLDFDLDLMPWESDIWDINNQICTVKDIKAEPQPLSPASSSYSVSSPRSVDSYSSTQHVPEELDLSSSSQMSPLSLYGENSNSLSSAEPLKEDKPVTGPRNKTENGLTPKKKIQVNSKPSIQPKPLLLPAAPKTQTNSSVPAKTIIIQTVPTLMPLAKQQPIISLQPAPTKGQTVLLSQPTVVQLQAPGVLPSAQPVLAVAGGVTQLPNHVVNVVPAPSANSPVNGKLSVTKPVLQSTMRNVGSDIAVLRRQQRMIKNRESACQSRKKKKEYMLGLEARLKAALSENEQLKKENGTLKRQLDEVVSENQRLKVPSPKRRVVCVMIVLAFIILNYGPMSMLEQDSRRMNPSVSPANQRRHLLGFSAKEAQDTSDGIIQKNSYRYDHSVSNDKALMVLTEEPLLYIPPPPCQPLINTTESLRLNHELRGWVHRHEVERTKSRRMTNNQQKTRILQGALEQGSNSQLMAVQYTETTSSISRNSGSELQVYYASPRSYQDFFEAIRRRGDTFYVVSFRRDHLLLPATTHNKTTRPKMSIVLPAININENVINGQDYEVMMQIDCQVMDTRILHIKSSSVPPYLRDQQRNQTNTFFGSPPAATEATHVVSTIPESLQ
# notes: ATF6α, human, tagged with EGFP at the N-terminus; Constructed in previous studies (Nadanaka et al., 2007; 2004); source: HCT116 ATF6α/β-DKO cells, transfected, in lysate; not shown: EGFP, N-terminal, kept
# B2: EGFP-ATF6α(C467A) (natural protein, human, UniProt P18850 1-670, looked up)
# chain: B1 chain with C467A
# notes: ATF6α, human, C467A, tagged with EGFP at the N-terminus; Constructed in previous studies (Nadanaka et al., 2007; 2004); source: HCT116 ATF6α/β-DKO cells, transfected, in lysate; not shown: EGFP, N-terminal, kept
# B3: EGFP-ATF6α(C618A) (natural protein, human, UniProt P18850 1-670, looked up)
# chain: B1 chain with C618A
# notes: ATF6α, human, C618A, tagged with EGFP at the N-terminus; Constructed in previous studies (Nadanaka et al., 2007; 2004); source: HCT116 ATF6α/β-DKO cells, transfected, in lysate; not shown: EGFP, N-terminal, kept
# B4: HA-ATF6α(WT) (natural protein, human, UniProt P18850 1-670, looked up)
# chain: B1 chain
# notes: ATF6α, human, full length; Plasmid from R. Prywes (Wang et al., 2000); also called HA-tagged WT; HA-tagged ATF6α WT; source: HCT116 ATF6α/β-DKO cells, transfected, in lysate; not shown: HA, N-terminal, kept
# Key:
# [1] = molecular target: HA-ATF6α(C467&618A) (human) (UniProt P18850); experiment: co-IP; HA-ATF6α and EGFP-ATF6α co-expressed in HCT116 DKO cells; 1% NP-40 lysates, anti-HA or anti-GFP antibody with protein G sepharose at 4°C, non-denaturing (disulfide bond-retaining) conditions; eluted with dithiothreitol, reducing SDS-PAGE, blot with anti-ATF6α
# HA-ATF6α(WT) (human) [2] = molecular target: HA-ATF6α(WT) (human) (UniProt P18850); experiment: as above
# [3] = molecular target: HA-ATF6α(C467&618A) (human) (UniProt P18850); experiment: condition: only in non-reducing SDS-PAGE (boiled in SDS; shows disulfide-bonded forms alone); non-reducing SDS-PAGE with immunoblotting; co-expression of HA-ATF6α and EGFP-ATF6α forms in HCT116 DKO cells; lysates on non-reducing SDS-PAGE; blot with anti-ATF6α; band of disulfide-bonded heterodimer of intermediate size
# HA-ATF6α(WT) (human) [4] = molecular target: HA-ATF6α(WT) (human) (UniProt P18850); experiment: as above
# [5] = molecular target: EGFP-ATF6α(C467&618A) (human) (UniProt P18850); experiment: co-IP; HA-ATF6α and EGFP-ATF6α co-expressed in HCT116 DKO cells; 1% NP-40 lysates, anti-HA or anti-GFP antibody with protein G sepharose at 4°C, non-denaturing (disulfide bond-retaining) conditions; eluted with dithiothreitol, reducing SDS-PAGE, blot with anti-ATF6α
# EGFP-ATF6α(WT) (human) = EGFP-ATF6α(WT) (human) (UniProt P18850); experiment: as above
# HA-ATF6α(C618A) (human) [6] = molecular target: HA-ATF6α(C618A) (human) (UniProt P18850); experiment: non-reducing SDS-PAGE with immunoblotting; one form of ATF6α in the cells; lysis in 1% NP-40 buffer (50 mM Tris/HCl pH 7.5, 150 mM NaCl, 10 mM N-ethylmaleimide), boiled in SDS sample buffer without dithiothreitol; blot with anti-ATF6α; shows disulfide-bonded forms
# [7] = molecular target: HA-ATF6α(C81/321/380/618A), in HCT116 DKO cells (human) (UniProt P18850); experiment: as above
# [8] = molecular target: HA-ATF6α(C81/321/380A) (human) (UniProt P18850); experiment: as above
# HA-ATF6α(C467A) (human) = HA-ATF6α(C467A) (human) (UniProt P18850); experiment: non-reducing SDS-PAGE with immunoblotting; co-expression of HA-ATF6α and EGFP-ATF6α forms in HCT116 DKO cells; lysates on non-reducing SDS-PAGE; blot with anti-ATF6α; band of disulfide-bonded heterodimer of intermediate size
# HA-ATF6α(C618A) (human) [9] = molecular target: HA-ATF6α(C618A) (human) (UniProt P18850); experiment: as above
# HA-ATF6α(WT) (human) [10] = molecular target: HA-ATF6α(WT) (human) (UniProt P18850); experiment: as above
molecule,measurement,setting,value
EGFP-ATF6α(C467&618A) (from UniProt P18850 1-670),binding,[1],binds
same,binding,HA-ATF6α(WT) (human) [2],binds
same,binding,[3],no binding
same,binding,HA-ATF6α(WT) (human) [4],no binding
HA-ATF6α(C467&618A) (from UniProt P18850 1-670),binding,[5],binds
same,binding,EGFP-ATF6α(WT) (human),binds
HA-ATF6α(C618A) (from UniProt P18850 1-670),binding,HA-ATF6α(C618A) (human) [6],binds
"HA-ATF6α(C81/321/380/618A), in HCT116 DKO cells (from UniProt P18850 1-670)",binding,[7],binds
HA-ATF6α(C81/321/380A) (from UniProt P18850 1-670),binding,[8],binds
B1,binding,HA-ATF6α(C467A) (human),binds
same,binding,HA-ATF6α(C618A) (human) [9],binds
same,binding,HA-ATF6α(WT) (human) [10],binds
same,binding,[1],binds
same,binding,HA-ATF6α(WT) (human) [2],binds
same,binding,[3],no binding
B2,binding,HA-ATF6α(C467A) (human),binds
B3,binding,HA-ATF6α(C618A) (human) [9],binds
B4,binding,[5],binds
same,binding,EGFP-ATF6α(WT) (human),binds
